Here are results for 28 compounds from the antibiotic and cytotoxicity screens of Wong et al. (2023).

The test system of one test is HSkMC. The test can be described thus: cytotoxicity call (relative viability < 0.9). The note with it: 10 µM.
For a further test, the system named is HepG2. The test can be described thus: cytotoxicity call (relative viability < 0.9). The note with it: 10 µM.
The next test relates to S. aureus RN4220. The test can be described thus: growth inhibition call (relative growth <= 0.2). The note with it: 50 µM.

The other results are listed elsewhere or left out.

In the case of `Cn1ncc2c(N3CCCC3)ncnc21`, the cytotoxicity call with HSkMC and in the test on HepG2 was “inactive” each time. Besides, in the test with S. aureus RN4220, the growth inhibition call was “inactive”.
Take `NC(=O)NCCCC(=O)O`: the cytotoxicity call in the test on HSkMC and in the test on HepG2 was “inactive” in each case. For the same compound, the growth inhibition call with S. aureus RN4220 was “inactive”.
Consider `COc1ccc(S(=O)(=O)N(C)C[C@@H]2Oc3c(NC(=O)C4CC4)cccc3C(=O)N([C@H](C)CO)C[C@H]2C)cc1`, for which the cytotoxicity call with HSkMC and with HepG2 was “inactive” throughout. Further, the growth inhibition call in the test on S. aureus RN4220 is “inactive”.
`C[C@H]1CCCCO[C@@H](CN(C)C(=O)Nc2ccccc2)[C@@H](C)CN([C@@H](C)CO)C(=O)c2cc(NC(=O)c3ccccc3)ccc2O1`: the cytotoxicity call in the test with HSkMC and with HepG2 was “inactive” in each case. Moreover, in the test with S. aureus RN4220, the growth inhibition call is “inactive”.
Take `COc1ccc(S(=O)(=O)N(C)C[C@@H]2Oc3c(NS(=O)(=O)c4ccccc4)cccc3C(=O)N([C@@H](C)CO)C[C@H]2C)cc1`: the cytotoxicity call in the test on HSkMC and with HepG2 was “inactive” in each case. In addition, the growth inhibition call in the test on S. aureus RN4220 was “inactive”.
With `C[C@@H]1CN([C@H](C)CO)C(=O)c2cccc(NC(=O)c3ccc(-c4nccs4)cc3)c2O[C@H]1CN(C)Cc1ccc(Cl)c(Cl)c1`, the cytotoxicity call in the test with HSkMC and in the test on HepG2 was “inactive” in each case. In the test on S. aureus RN4220, the growth inhibition call was “inactive”.
On to `CN(C)C(=O)N1C[C@@H]2COC[C@@]2(CN2CCOCC2)C1`, for which the cytotoxicity call with HSkMC and in the test with HepG2 was “inactive” in each case. Besides, the growth inhibition call in the test on S. aureus RN4220 is “inactive”.
As for `COc1ccc2c3c([nH]c2c1)[C@H](CO)N(C[C@]13CCN(CC1)C(=O)Nc1c(noc1C)C)C(=O)Nc1ccc(cc1)F`, the cytotoxicity call in the test with HSkMC and in the test with HepG2 was “inactive” in each case. Moreover, the growth inhibition call with S. aureus RN4220 was “inactive”.
Consider `COc1ccc(C(=O)Nc2ccc(CN3C(=O)[C@]4(O[C@H](CC(=O)N5CCC[C@H]5CO)[C@@H]([Si](C)(C)c5ccc(OC)cc5)[C@@H]4C)c4ccccc43)cc2)cc1`, for which the cytotoxicity call in the test on HSkMC and with HepG2 was “inactive” throughout. Moreover, the growth inhibition call with S. aureus RN4220 is “inactive”.
For `C[C@@H]1CN([C@H](C)CO)C(=O)c2cccc(NS(=O)(=O)c3cn(C)cn3)c2O[C@@H]1CN(C)S(=O)(=O)c1ccccc1`, the cytotoxicity call with HSkMC and in the test on HepG2 was “inactive” in each case. Further, the growth inhibition call in the test with S. aureus RN4220 is “inactive”.
As for `COc1ccc(NC(=O)Nc2ccc3c(c2)C(=O)N([C@H](C)CO)C[C@@H](C)[C@H](CN(C)C(=O)Nc2ccc(C(F)(F)F)cc2)OCCCC[C@@H](C)O3)cc1`, the cytotoxicity call with HSkMC and in the test on HepG2 was “inactive” in each case. Further, in the test with S. aureus RN4220, the growth inhibition call was “inactive”.
Take `COc1ccc(NC(=O)N(C)C[C@H]2OCCCC[C@H](C)Oc3ccc(NS(=O)(=O)c4ccc(OC)cc4)cc3C(=O)N([C@@H](C)CO)C[C@@H]2C)cc1`: the cytotoxicity call in the test with HSkMC and in the test on HepG2 was “inactive” each time. For the same compound, the growth inhibition call with S. aureus RN4220 is “inactive”.
With `C[C@H]1CN([C@@H](C)CO)C(=O)c2cccc(NC(=O)Nc3ccc(C(F)(F)F)cc3)c2O[C@@H]1CN(C)C(=O)Nc1ccc2c(c1)OCO2`, the cytotoxicity call in the test with HSkMC was “active”. Further, in the test with HepG2, the cytotoxicity call was “inactive”. Further, in the test on S. aureus RN4220, the growth inhibition call is “inactive”.
In the case of `C[C@H](CO)N1C[C@H](C)[C@@H](CN(C)C(=O)Nc2cccc3ccccc23)Oc2ccc(NS(=O)(=O)c3ccc(Cl)cc3)cc2C1=O`, the cytotoxicity call in the test on HSkMC and in the test with HepG2 was “inactive” throughout. In addition, the growth inhibition call in the test on S. aureus RN4220 is “inactive”.
On to `C[C@@H]1CN([C@@H](C)CO)C(=O)Cc2cc(NC(=O)CCN3CCOCC3)ccc2O[C@@H]1CN(C)S(C)(=O)=O`, for which the cytotoxicity call in the test with HSkMC and with HepG2 was “inactive” in each case. Also, in the test with S. aureus RN4220, the growth inhibition call was “inactive”.
As for `Cc1ccc(C(=O)Nc2ccc(S(=O)(=O)[O-])c3cc(S(=O)(=O)[O-])cc(S(=O)(=O)[O-])c23)cc1NC(=O)c1cccc(NC(=O)Nc2cccc(C(=O)Nc3cc(C(=O)Nc4ccc(S(=O)(=O)[O-])c5cc(S(=O)(=O)[O-])cc(S(=O)(=O)[O-])c45)ccc3C)c2)c1.[Na+].[Na+].[Na+].[Na+].[Na+].[Na+]`, the cytotoxicity call with HSkMC and in the test on HepG2 was “inactive” throughout. Moreover, the growth inhibition call in the test on S. aureus RN4220 was “inactive”.
On to `O=C(C[C@@H]1CC[C@@H]2[C@H](COC[C@@H](O)CN2S(=O)(=O)c2cccc(F)c2)O1)NCc1ccc2c(c1)OCO2`, for which the cytotoxicity call in the test on HSkMC and with HepG2 was “inactive” each time. Besides, in the test with S. aureus RN4220, the growth inhibition call was “inactive”.
On to `OCC1OC(OC2C(CO)OC(O)C(O)C2O)C(O)C(O)C1O` (centres undefined), for which the cytotoxicity call with HSkMC and in the test with HepG2 was “inactive” throughout. Besides, the growth inhibition call in the test on S. aureus RN4220 was “inactive”.
In the case of `C[C@@H]1CN([C@H](C)CO)C(=O)Cc2cc(NS(=O)(=O)c3ccccc3)ccc2O[C@H]1CN(C)Cc1ccncc1`, the cytotoxicity call in the test on HSkMC and in the test with HepG2 was “inactive” in each case. Also, the growth inhibition call in the test with S. aureus RN4220 is “inactive”.
With `Cc1ccc(Nc2nc3ccccc3s2)cc1Cl`, the cytotoxicity call with HSkMC and with HepG2 was “inactive” in each case. Also, the growth inhibition call in the test with S. aureus RN4220 is “inactive”.
Consider `Cc1ccc2c(c1)C(=O)CCS2`, for which the cytotoxicity call in the test with HSkMC and in the test on HepG2 was “inactive” each time. The growth inhibition call with S. aureus RN4220 was “inactive”.
For the compound `C[C@@H]1CCCCO[C@@H](CN(C)Cc2ccc3c(c2)OCO3)[C@@H](C)CN([C@H](C)CO)C(=O)c2cc(NC(=O)Cc3ccccc3)ccc2O1`, the cytotoxicity call with HSkMC and in the test with HepG2 was “inactive” in each case. Besides, the growth inhibition call in the test with S. aureus RN4220 is “inactive”.
On to `O=c1c2c(c1=O)N(CCP(=O)(O)O)CCCN2`, for which the cytotoxicity call in the test on HSkMC and in the test with HepG2 was “inactive” throughout. Also, the growth inhibition call in the test with S. aureus RN4220 is “inactive”.
As to `Nc1cc(C(Cl)=C(Cl)Cl)c(S(N)(=O)=O)cc1S(N)(=O)=O`, the cytotoxicity call in the test with HSkMC and in the test with HepG2 was “inactive” in each case. The growth inhibition call with S. aureus RN4220 is “inactive”.
`C[C@@H]1CN([C@@H](C)CO)S(=O)(=O)c2ccc(C3=CCCC3)cc2O[C@H]1CN(C)S(=O)(=O)c1cn(C)cn1`: the cytotoxicity call in the test on HSkMC (human skeletal muscle cells) and in the test with HepG2 was “inactive” throughout. Besides, the growth inhibition call with S. aureus RN4220 was “inactive”.
Turning to `Cn1nnc2cc(NC(=O)NCCO)ccc21`, the cytotoxicity call in the test with HSkMC and with HepG2 was “inactive” in each case. The growth inhibition call with S. aureus RN4220 was “inactive”.
`C[C@@H](NC(=O)N(C)C[C@@H]1OCc2ccccc2-c2ccccc2C(=O)N([C@@H](C)CO)C[C@@H]1C)c1ccccc1`: the cytotoxicity call with HSkMC and with HepG2 was “inactive” throughout. In addition, in the test on S. aureus RN4220, the growth inhibition call was “inactive”.
`COc1ccc(CN(C)C[C@@H]2OCCCC[C@@H](C)Oc3ccc(NC(=O)c4ccccc4)cc3C(=O)N([C@@H](C)CO)C[C@@H]2C)cc1`: the cytotoxicity call with HSkMC and with HepG2 was “inactive” each time. Further, the growth inhibition call with S. aureus RN4220 was “inactive”.
